PMC12136788
The other results are listed elsewhere or left out.

T1: UNK ZnF1-3 (human, UniProt Q9C0B0 31-174)
T1 sequence: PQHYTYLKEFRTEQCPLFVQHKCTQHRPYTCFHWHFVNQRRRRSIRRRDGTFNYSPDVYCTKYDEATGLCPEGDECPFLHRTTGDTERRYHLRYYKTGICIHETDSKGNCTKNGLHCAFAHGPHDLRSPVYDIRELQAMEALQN

B1: chrX:41029285:41029286:+_ENSG00000124486_ENST00000378308|hu_mus|motif|central (ssRNA)
RNA: GGGAGUUCUACAGUCCGACGAUCUGUAUGAGACCAAACCUCCAAGUCAUCUACUUGCCUGCCCUGGUUUGGAAAUCGAACGGUAAAAGAGAGGUGUUUACCACGGAAAGCUCUUGACAUAGGCAAAAUUGUUCUUUCUUCAUGCAACAGAGGAUUGAGCAUCA
B2: chr1:145441008:145441009:+_ENSG00000117289_ENST00000369317|hu_mus|FALSE|FALSE (ssRNA)
RNA: GGGAGUUCUACAGUCCGACGAUCGCACGGAUCCACCUCAGUGUAAGUGGGUGGGGGCAUGAACUGGAACUCAGGGGCGUACAUAAAGAUAGGGCUGUCUUGAGAGUCGUCCACAUCGUCCAGCAGAGGGGUGGUGGGGCUCUCCAACAGAGGAUUGAGCAUCA
B3: chr8:117866615:117866616:-_ENSG00000164754_ENST00000297338|hu_hu|FALSE|FALSE (ssRNA)
RNA: GGGAGUUCUACAGUCCGACGAUCCAAUUUCUUGGUGGGCGGUGCCAGAUCCAAAGUAGUAACAAUAUCUGAAUAAUCACUAAGUUGGGCUCUAAUUGUCUUGCUAUCCAACUCUUUGACACUGUCAACAAUUAGCUUCCUCUUCAACAGAGGAUUGAGCAUCA
B4: 55789658_55791967_5080_CDS_ENSMUSG00000027799_ENSMUST00000029374|mouse|control|control (ssRNA)
RNA: GGGAGUUCUACAGUCCGACGAUCAACAACAGCCAGGGCUAAGAAUUGUGCCUGCUUGCUAUCAUCCACAUCUCGAAAGACAACAGCACGAAGGCGAUUGAUAUCAACAUCCUGAAGAAGCCUAUCGGGAUCCUUGAUGGGAGACAACAGAGGAUUGAGCAUCA
B5: 158619828_158619948_6993_3pUTR_ENSG00000272047_ENST00000607778|human|control|control (ssRNA)
RNA: GGGAGUUCUACAGUCCGACGAUCCCCCGUUUGAAGAGAUCAGGAAGACUCAUGUAUUCCAGGCAACAUUAAGAAGUUUUAAAAUUUCAAAGAAAUAAUUAACUGCAGGAAAGGGAGGGAGGGAUGAAGAAUGAUGGCCAACUACAACAGAGGAUUGAGCAUCA
B6: chr9:37780755:37780756:-_ENSG00000107371_ENST00000396521|hu_hu|motif|central (ssRNA)
RNA: GGGAGUUCUACAGUCCGACGAUCGCCAAUCUGGAGAAGAUCUGUUUUCUUUGAUCUGACGUCAUGUGUUCACAAGCUUCGGAAAUGUUUGCCAAAAUUAAAGUCUGCUGGAUGGUUUUUGCCUUAACCCAUAUUCUUCCAUUCCAACAGAGGAUUGAGCAUCA
B7: chr1:145439819:145439820:+_ENSG00000117289_ENST00000369317|hu_mus|motif|central (ssRNA)
RNA: GGGAGUUCUACAGUCCGACGAUCUUUCUUUGCCUCUUGAGUUGGCUGGCUGGGGCGAUCGAGAAAAGCCUUCACCCAGUAGUCGGCGCAACCAUAUUUUCCUUUAAAGGAUGUUCCCAGGGGCCCUUGAGGAAGCUCGAAGCCCAACAGAGGAUUGAGCAUCA
B8: chr15:44268054:44268055:+_ENSMUSG00000022338_ENSMUST00000060652|mus_mus|FALSE|FALSE (ssRNA)
RNA: GGGAGUUCUACAGUCCGACGAUCGAAAACAUAUUAUUAAUCAGAGGACUCAGAAGAAAGUCCAACAAAACAUUACUUAAAAGUUACAUACAGCAAAAAGUACUCCACAAAAAGCCAGAAAGGACUUCCAAUGGUAGGAAGCAGCAACAGAGGAUUGAGCAUCA
B9: chr18:80415450:80415451:+_ENSMUSG00000057130_ENSMUST00000145963|mus_mus|FALSE|FALSE (ssRNA)
RNA: GGGAGUUCUACAGUCCGACGAUCGUACAUCUUGUUGAAGUCAGGCACUUCUGUAAUAUCCACAAGAUAAAUAACUGCAAAAUUUUUAACCUUUUCGGCGAUGCUGUACAGAACCUCGUCCAUCUUCAUGCAAGUGGGGUCCCACAACAGAGGAUUGAGCAUCA
B10: chr3:10015032:10015033:+_ENSMUSG00000027533_ENSMUST00000029046|mus_mus|mus_mus_mus_hu_True|18_108 (ssRNA)
RNA: GGGAGUUCUACAGUCCGACGAUCGUUGUUGCCAUCACAAGUGAUGAUACAAUCUGGCUUGGCCAUUGCGCCCAUUUUUCGCAAAGCUAUUCCCACUCCUAGCUCCUUCAUGUAUUCCUCAAAGCCGUUGCUGUCCACCAGGCGCAACAGAGGAUUGAGCAUCA
B11: chr2:202488911:202488912:-_ENSG00000155755_ENST00000286196|hu_mus|hu_hu_hu_mus_False|1_58 (ssRNA)
RNA: GGGAGUUCUACAGUCCGACGAUCAUUGAAACAUUUUUCAUAAUCUCCAGUAGCAUUUCAGCAUUAUGUAACAAAAGAUCUAUUACAAAUACAUGUAUCUUAUAAAAAUACACUUAAAAACACGAGUGGGGAGCGCACAAAUACCAACAGAGGAUUGAGCAUCA
B12: chr17:45747064:45747065:+_ENSG00000108424_ENST00000290158|hu_hu|hu_hu_hu_mus_True|58_98 (ssRNA)
RNA: GGGAGUUCUACAGUCCGACGAUCGCCCACAGUCCACGCAGCUGUAUCUCGAACAACUACACUGGGGUCUUUCAUUAAUUCUAUUAGGGUGGGCAUAGCCUGUAUGACUAAUGGUUUCAGUUGAUUAGGCUCUGGUCCUUCCAACAACAGAGGAUUGAGCAUCA
B13: chr5:128440902:128440903:+_ENSG00000066583_ENST00000173527|hu_mus|hu_hu_hu_mus_True|1_88 (ssRNA)
RNA: GGGAGUUCUACAGUCCGACGAUCUUGAACGGUGCUGCCAAGUCCUUUAGGGUAUUGUUCCGUUAUGAUAACUGGAAUCCCUAAGAUCCGAGCUCCUUGCAACAGUCUCUGUCCCACACUAAUGAUGUCCCCAAAGUACUUGAUCAACAGAGGAUUGAGCAUCA
B14: chr17:72008250:72008251:+_ENSMUSG00000041057_ENSMUST00000047086|mus_mus|FALSE|FALSE (ssRNA)
RNA: GGGAGUUCUACAGUCCGACGAUCCCAUUUAUAGACAAAUAACAACUGUACAUCAGUCGCUCCAGCAGCUUGCCCAACAUGCCCUUCCCGCUUCGGCUGGGCAGCCUGCUCUGCCCCGGUGGAAGUCCUCCCAGAGAGCAUUCUCAACAGAGGAUUGAGCAUCA
B15: chr3:159597999:159598000:+_ENSMUSG00000028173_ENSMUST00000068952|mus_mus|motif|central (ssRNA)
RNA: GGGAGUUCUACAGUCCGACGAUCAGCAAGAAGUUAAAAAAAGCUUUUAGGACCCAAAGGCCAUUUAAUACCAGAAAUCCGGUUUGGGUAGUUAAGCAAAUAUUUCUCAAAAUCCACAAACAAACAGACAGAUUAGUAUCAAAUCAACAGAGGAUUGAGCAUCA
B16: chr11:68582865:68582866:-_ENSG00000110090_ENST00000265641|hu_hu|motif|central (ssRNA)
RNA: GGGAGUUCUACAGUCCGACGAUCCUUGAAUCUGAUGAACUUCUUUUUCCAGGAAUGAAGUCCAGAGAGAUAGAUUUGUCGGAGAGCUUCAUGGCUCAGCCGCAGGUCAAUCCCGUCCGGAGUGACCGUGAACUGAAAGGCCACCAACAGAGGAUUGAGCAUCA
B17: 120496184_120496304_2506_CDS_ENSG00000134250_ENST00000256646|human|control|control (ssRNA)
RNA: GGGAGUUCUACAGUCCGACGAUCAGUACACCUGUAUCCAUUCACCAGAUUGUCACAAGUUCCUCCAUUCUGGCAUGGAUUCGAAAGGCAUUCAUUUUUGUCCACUUCACAGUUGAUGCCAACCCAGCCUGCAUCACAGAGACACAACAGAGGAUUGAGCAUCA
B18: chr18:33956166:33956167:-_ENSMUSG00000024376_ENSMUST00000025234|mus_mus|motif|central (ssRNA)
RNA: GGGAGUUCUACAGUCCGACGAUCCUUGGAUUUGGUUUUAGUUUGGGGUGAGGGAGAUUGUGGGAAAGGCCACAGUUCAACCGGAGGAGUUAAGGGUAGAGCUUGGCAAGCACUAUCACUGAGCAGUCUACCCCCCAACUGAACCAACAGAGGAUUGAGCAUCA
B19: chr9:91949571:91949572:+_ENSG00000187742_ENST00000375807|hu_hu|motif|central (ssRNA)
RNA: GGGAGUUCUACAGUCCGACGAUCAAUGUGUUUUUCUUUGUUGUAGGAAGGAUCCGAAGAUAAAGCUUCAGAAGAUGGUAUACGGACAUUUUUAGGAUCUGCUGAUGAAGCAAUGGUCUUUAAGUUUAUCAUAGAAGUAACAUUCAACAGAGGAUUGAGCAUCA
B20: 46276008_46277766_3720_CDS_ENSG00000124151_ENST00000372004|human|control|control (ssRNA)
RNA: GGGAGUUCUACAGUCCGACGAUCUCGGCUCUGAUUCAAAAACUGCUGGCCCUGCAGCCUCUGCUGAAGCUGCAUUCUAAGUUGCUUGGGGGUGUUUGUCCGGGGUCUCAUGAUGUUGGCUCGUGGGUGCAUUCCUUGGAGAGGCAACAGAGGAUUGAGCAUCA
B21: chr2:118749752:118749753:+_ENSMUSG00000040007_ENSMUST00000036578|mus_hu|FALSE|FALSE (ssRNA)
RNA: GGGAGUUCUACAGUCCGACGAUCAAUAUAAGGAGAUCCAAGUCCCUUCCCUUCAGGUUUGGGAUCAGGCUUCCCAAGCAUAAAUUCACCUCUGAAGCCUCCAGGCCUCACCCAAACCCAAUGACCAAUCAGGAGCAACUCAUCCAACAGAGGAUUGAGCAUCA
B22: chr1:220276048:220276049:+_ENSG00000067704_ENST00000302637|hu_hu|hu_hu_hu_mus_True|8_48 (ssRNA)
RNA: GGGAGUUCUACAGUCCGACGAUCGCAAAUUGCCUGGUUGGCGGGAAUUGUCCAAGGCUGGGUGGUCCAAACUAAAACGCUAACAGGAGAUGAACCAUCUGUAAGAGACUCCAACUUCGGAGGAGGUUUUAAGAGAGGGAAUCUCAACAGAGGAUUGAGCAUCA

Target: T1, UNK ZnF1-3
Assay: nsRBNS (natural sequence RNA bind-n-seq); RBNS binding buffer (assumed for nsRBNS): 25 mM Tris pH 7.5, 150 mM KCl, 3 mM MgCl2, 0.01% Triton X-100, 500 ug/ml BSA, 20 U/ml SUPERase-In, 4 C; UNK is unkempt and MSI1 is Musashi-1; names of the RNAs are library labels; protein concentration not given here; high values mean tight binding

For B1, which binding signal is on record?
Its binding signal is 1.07 enrichment R.

Which binding signal does the source give for B2 here?
The binding signal was 1.3 enrichment R.

With B3 as the binder, how does the binding signal read?
Its binding signal is 1.07 enrichment R.

With B4 as the binder, how does the binding signal read?
Its binding signal is 1.07 enrichment R.

Which binding signal does the source give for B5 here?
Its binding signal is 2.16 enrichment R.

Which binding signal does the source give for B6 here?
The binding signal was 0.934 enrichment R.

For B7, which binding signal is on record?
The binding signal was 1.1 enrichment R.

How did the binding signal turn out when B8 was run?
The binding signal was 1.61 enrichment R.

With B9 as the binder, how does the binding signal read?
The binding signal was 1.02 enrichment R.

Which binding signal does the source give for B10 here?
Its binding signal is 0.753 enrichment R.

Which binding signal does the source give for B11 here?
Its binding signal is 1.46 enrichment R.

How did the binding signal turn out when B12 was run?
The binding signal was 0.787 enrichment R.

For B13, which binding signal is on record?
Its binding signal is 0.729 enrichment R.

Which binding signal does the source give for B14 here?
Its binding signal is 0.986 enrichment R.

B15 was tested. Which binding signal did it give?
The binding signal was 2.13 enrichment R.

Which binding signal does the source give for B16 here?
Its binding signal is 0.298 enrichment R.

Which binding signal does the source give for B17 here?
The binding signal was 0.981 enrichment R.

Which binding signal does the source give for B18 here?
Its binding signal is 1.07 enrichment R.

B19 was tested. Which binding signal did it give?
The binding signal was 0.869 enrichment R.

With B20 as the binder, how does the binding signal read?
Its binding signal is 0.834 enrichment R.

Which binding signal does the source give for B21 here?
Its binding signal is 0.919 enrichment R.

For B22, which binding signal is on record?
The binding signal was 1.77 enrichment R.
